In all, about 310,000 compounds went through this assay and about 14,000 (4.5%) showed an effect of 50% or more. The effect is printed as a negative number. The list shows a part of the results.
target: human ether-à-go-go-related gene (hERG) potassium channel (human, UniProt Q12809); test: primary screen, population patch clamp on CHO cells stably expressing hERG
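Note: peak tail current of the secondary pulse compared with the same well before compound.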

Sequence of human ether-à-go-go-related gene (hERG) potassium channel (Q12809 whole entry, looked up): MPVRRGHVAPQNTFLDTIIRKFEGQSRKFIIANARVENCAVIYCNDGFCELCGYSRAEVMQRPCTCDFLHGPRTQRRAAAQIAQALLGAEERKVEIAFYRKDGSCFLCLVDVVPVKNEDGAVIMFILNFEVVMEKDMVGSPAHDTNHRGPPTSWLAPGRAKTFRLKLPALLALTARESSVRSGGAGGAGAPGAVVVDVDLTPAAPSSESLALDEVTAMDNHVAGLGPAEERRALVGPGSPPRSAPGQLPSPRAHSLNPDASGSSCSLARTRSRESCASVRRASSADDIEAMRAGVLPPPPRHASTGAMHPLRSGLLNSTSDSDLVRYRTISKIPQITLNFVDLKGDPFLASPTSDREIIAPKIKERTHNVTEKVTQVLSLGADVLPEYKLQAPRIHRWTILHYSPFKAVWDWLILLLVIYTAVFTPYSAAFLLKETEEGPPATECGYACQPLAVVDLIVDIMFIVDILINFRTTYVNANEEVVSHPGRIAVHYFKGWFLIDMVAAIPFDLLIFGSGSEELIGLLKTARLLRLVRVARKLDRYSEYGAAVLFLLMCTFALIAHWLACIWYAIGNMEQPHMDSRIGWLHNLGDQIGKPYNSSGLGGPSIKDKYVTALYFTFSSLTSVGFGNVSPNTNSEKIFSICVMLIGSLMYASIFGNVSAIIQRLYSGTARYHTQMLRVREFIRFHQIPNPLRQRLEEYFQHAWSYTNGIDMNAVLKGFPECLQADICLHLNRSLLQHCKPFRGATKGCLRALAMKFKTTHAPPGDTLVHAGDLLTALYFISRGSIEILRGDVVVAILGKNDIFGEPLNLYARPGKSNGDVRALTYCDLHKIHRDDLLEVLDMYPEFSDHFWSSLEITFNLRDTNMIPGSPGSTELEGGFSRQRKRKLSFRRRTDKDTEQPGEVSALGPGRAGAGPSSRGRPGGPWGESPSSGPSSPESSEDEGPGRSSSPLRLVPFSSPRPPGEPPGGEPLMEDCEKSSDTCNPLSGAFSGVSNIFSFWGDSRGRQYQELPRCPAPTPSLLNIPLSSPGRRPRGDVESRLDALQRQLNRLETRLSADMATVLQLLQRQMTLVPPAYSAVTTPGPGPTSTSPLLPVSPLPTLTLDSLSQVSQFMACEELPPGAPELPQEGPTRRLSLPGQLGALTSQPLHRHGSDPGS

Row | Compound | hERG current change (%, negative = inhibition) at 10uM
1 | O=C(CSc1nnc(-c2ccco2)o1)NC1CC2CCC1C2 (centres unmarked) | -2.05%
2 | COC(=O)c1ccc(CSc2nc(-c3ccccc3)cs2)o1 | 15.2%
3 | CCOc1ccccc1CNc1ccc(N2CCOCC2)c(C(=O)O)c1 | -22.8%
4 | CC1CN(CC(=O)NC(C)c2ccccc2)CC(C)O1 (centres unmarked) | 9.23%
5 | O=C(Nc1cc(S(=O)(=O)N2CCOCC2)ccc1Cl)c1cc(=O)c2ccccc2o1 | 8.76%
6 | Cc1onc(-c2ccc(Cl)cc2Cl)c1C(=O)/C=C/N(C)C | 5.11%
7 | Cc1cccc(CC(=O)NCCn2c(C)cc3ccccc32)c1 | -7.64%
8 | Cc1cc2ccccn2c1C(=O)c1cccc(S(=O)(=O)N2CCOCC2)c1 | -30.7%
9 | Cc1ccc(NC(=S)NNC(=O)c2c(Cl)c(C)nn2C)cc1 | 23.4%
10 | CC(=O)Nc1ccc(NC(=O)C(C)OC(=O)C2(c3ccc(F)cc3)CCCC2)cc1 (centres unmarked) | 2.48%
11 | O=C1CC(=O)N(CCc2ccccc2)C(=O)N1CCc1ccccc1 | 6.19%
12 | CCOc1cc(/C=N/N2CCOCC2)ccc1OCc1ccc(C(=O)OC)o1 | 0.999%
13 | CCCCC(=O)Nc1cccc(-c2nc3ncccc3o2)c1 | -44.6%
14 | O=C(/C=C/c1ccccc1)Nc1cc(S(=O)(=O)N2CCOCC2)ccc1N1CCCC1 | -1.04%
15 | COc1cccc(NC(=S)NCc2ccco2)c1 | -5.9%
16 | NC(=S)N(c1ccccc1)c1ccccc1 | 11.9%
17 | C[Si](C)(C)n1ccnc1 | 27.9%
18 | CCCc1nc(N)c(C#N)c(N)c1C#N | 8.77%
19 | O=C(/C=C/c1cccnc1)c1ccc(O)cc1 | -15.4%
20 | COC(=O)COc1ccc2cc(-c3ccccc3)c(=O)oc2c1 | 5.21%
21 | Cn1c(N2CCOCC2)c(C#N)c2ccccc21 | -3.19%
22 | O=C(NC1CCCCC1)C(c1ccc2ncccc2c1)N(Cc1ccc2c(c1)OCO2)C(=O)c1ccc2c(c1)OCCO2 (centres unmarked) | -12.5%
23 | NC(=O)NC(=O)C(c1ccccc1)N1CCN(S(=O)(=O)c2ccc(Br)s2)CC1 (centres unmarked) | -52.2%

Row | Compound | hERG current change (%, negative = inhibition) at 10uM
24 | CCOc1ccc(N(CC(=O)Nc2ccccc2Cl)S(C)(=O)=O)cc1 | 9.72%
25 | CCn1c(CNc2ccc(F)cc2)nnc1SCC(=O)N1CCCc2ccccc21 | -41.6%
26 | O=C(Nc1nnc(-c2cccs2)s1)c1cccc(F)c1 | 22%
27 | COc1ccc(C(=O)Nc2ccc(N3CCN(C(=O)C(C)C)CC3)cc2)cc1[N+](=O)[O-] | 19.8%
28 | O=C(c1ccc(F)cc1Cl)N1CCN(S(=O)(=O)c2cccs2)CC1 | -2.3%
29 | CN(c1ccc(OCC(=O)Nc2ccc3[nH]c(=O)[nH]c3c2)cc1)S(=O)(=O)c1ccc(Cl)cc1 | 3.97%
30 | CSCCC(NS(=O)(=O)c1ccc(Cl)cc1)C(=O)OCC(=O)N(C(C)C)C(C)C (centres unmarked) | -11.2%
31 | CCOc1ccc(S(=O)(=O)N2CCCCC2)cc1NC(=O)CC1OC(=O)c2ccccc21 (centres unmarked) | -31.3%
32 | O=C(Cc1ccc(NS(=O)(=O)c2cccc(C(F)(F)F)c2)cc1)NCCN1CCOCC1 | -11.1%
33 | C=C(C)Cn1c(N2CCC(Cc3ccccc3)CC2)nc2c1c(=O)[nH]c(=O)n2C | -3.01%
34 | Cc1coc2cc3oc(=O)c(CCC(=O)NCC(=O)O)c(C)c3cc12 | 23.6%
35 | Cc1cccc(N(Cc2cc3ccccc3[nH]c2=O)S(C)(=O)=O)c1 | -4.02%
36 | CCCC(=O)Oc1ccc(N(C(=O)CCC)S(=O)(=O)c2cccc([N+](=O)[O-])c2)cc1 | 3.87%
37 | CCn1c(=O)c(C(=O)NCc2ccc(OC)cc2)c(O)c2ccccc21 | 2.22%
38 | COc1ccc(N2CC(C(=O)OCC(=O)c3cccc(OC)c3)CC2=O)cc1 (centres unmarked) | -28.1%
39 | CC1(C)CC(N2CCN(c3ccccc3)CC2)=CC(=[N+]2CCCC2)C1.[I-] | -15.3%
40 | CCCCN1CC[C@H]2C=CC[C@@H](C(=O)Nc3nccs3)[C@H]2C1=O | 7.92%
41 | O=C(Nc1ccccc1C(=O)Nc1ccccc1)c1ccccc1F | 20.3%
42 | Cc1ccccc1NCC(=O)N/N=C/c1ccc([N+](=O)[O-])cc1 | -11.7%
43 | Cc1ccc2c(CN3CCN(S(=O)(=O)/C=C/c4ccccc4)CC3)cc(=O)oc2c1 | -72.4%
44 | CC(C)(C)NC(=O)Cn1cnc([N+](=O)[O-])n1 | -11.4%
45 | CCNC(=O)/C(C#N)=C/c1c(N2CCN(c3ccccc3)CC2)nc2c(C)cccn2c1=O | -32.6%
46 | Cl.O=C(CNCc1cccs1)Nc1ccc(OC(F)(F)F)cc1 | -19.5%

Row | Compound | hERG current change (%, negative = inhibition) at 10uM
47 | COc1ccc(OC)c(NC(=O)c2cc3sccc3n2C)c1 | -0.279%
48 | O=C1CN(S(=O)(=O)c2ccccc2C(F)(F)F)CCN1 | 29.5%
49 | CCN(C(=O)CCS(=O)(=O)c1cccc2nonc12)c1ccc(F)cc1 | -18.6%
50 | O=C(NN=C1CCCC1)c1cccc(Br)c1 | -2.76%
51 | O=C(Nc1ccc(N2CCCC2)cc1)c1ccc(Br)o1 | -20.8%
52 | Cl.Nc1nc(Nc2ccccc2)nc2ccccc12 | -18.5%
53 | Cc1nc2cc(NC(=O)N3CC4(C)CC3CC(C)(C)C4)ccc2n1C (centres unmarked) | -23.5%
54 | CCOC(=O)C1CCN(C(=O)c2ccc3c(Cl)c4c(nc3c2)CCCC4)CC1 | -28.4%
55 | CC1(C)Cc2c(cnn2-c2ccccc2)C(=O)/C1=N\NC(=O)c1ccccc1N | 4.99%
56 | COc1ccccc1-c1nc(-c2ccc(C)nc2OC)no1 | 9.92%
57 | CC(=O)Nc1ccc(-c2cc(C(=O)O)c3ccccc3n2)cc1 | 17.2%
58 | CC(=Nc1ccccc1O)c1sc2ccccc2c1O | 6.81%
59 | C=CCNC(=S)NNC(=O)c1ccc([N+](=O)[O-])cc1 | 14.9%
60 | COc1ccc(/C(O)=C2/C(=O)C(=O)N(Cc3cccnc3)C2c2ccco2)cc1OC (centres unmarked) | -5.78%
61 | CC(=O)Oc1ccccc1N(C(C)=O)S(=O)(=O)c1ccc(C)cc1 | 15%
62 | Cc1ccc2nc(-c3ccc(NC(=O)CCN4C(=O)c5ccccc5C4=O)cc3)sc2c1 | -8.05%
63 | C=CCN1C(=O)C2C(C(=O)NC)C3C=CC2(O3)C1C(=O)NCc1ccc(OC)cc1 (centres unmarked) | 0.24%
64 | COn1c(=O)c(=O)n(O)c2ccccc21 | 3.06%
65 | Cc1c(NCc2cccnc2)cccc1C(=O)O | 13.9%
66 | O=C(CC1(O)C(=O)Nc2ccccc21)c1ccc(-n2cccc2)cc1 (centres unmarked) | 2.85%
67 | CN(CCOc1ccc(Cl)cc1)Cc1cccc(S(=O)(=O)N(C)C)c1 | -56.5%
68 | CSc1nc2c(c(=O)[nH]1)C(c1cccc(Cl)c1Cl)CC(=O)N2 (centres unmarked) | 16.7%
69 | COc1ccc(-c2cc(-c3n[nH]c(=S)n3-c3ccccc3OC)[nH]n2)cc1 | 18.6%

Row | Compound | hERG current change (%, negative = inhibition) at 10uM
70 | C/C(=N/NC(=O)c1ccncc1)c1c[nH]c2ccccc12 | 15.4%
71 | C/C(CC(=O)Nc1ccc2c(c1)OCCO2)=N\NC(=O)c1ccccc1Cl | 22.5%
72 | CCOc1ccc2nc(NC(=O)c3ccc(OCC4CCCO4)cc3)sc2c1 (centres unmarked) | -2.99%
73 | CN1CCC[C@H]1c1cccnc1 | 17.5%
74 | O=C(NNC(=O)c1ccc(Cl)s1)c1csc(N2CCOCC2)n1 | 0.659%
75 | CCOc1ccccc1N1CCN(C(=O)c2ccncc2)CC1 | -8.78%
76 | Cc1c(C(=O)NCCCN2CCCCC2)oc2ccc3c(c12)C(O)CC1(CCCCC1)O3 (centres unmarked) | -32.2%
77 | CCOC(=O)c1c(C)nn(-c2ccc(NC(=O)/C=C/C(=O)O)cc2)c1C | 16.9%
78 | Cc1ccc(S(=O)(=O)c2nc(-c3ccc(F)cc3)oc2SCC(N)=O)cc1 | -11%
79 | CCCCc1cc(=O)oc2cc(C)cc(OCC(=O)NCCN3CCOCC3)c12 | -9.56%
80 | COc1ccccc1NC(=O)CCN1CCN(c2ccc(Cl)cc2)CC1 | -33.9%
81 | CCN(CC(=O)Nc1c(F)cccc1F)C(=O)CCC(=O)c1ccc(F)cc1 | -12.1%
82 | O=C(c1cccs1)N1CCC(c2nc3c(nnn3Cc3ccccc3)c(=O)[nH]2)CC1 | -1.65%
83 | O=C(O)C(Cc1ccc(Cl)cc1)NS(=O)(=O)c1ccc(Cl)cc1 (centres unmarked) | 27.1%
84 | Cc1ccccc1CC(=O)N1CCOCC1 | 10.5%
85 | Cn1cccc1CN1CCN(C(=O)COc2ccccc2)CC1 | 7.81%
86 | COc1ccc(OC)c(/C=C/C(=O)N(C)CC(=O)Nc2ccc(C)cc2)c1 | -18.3%
87 | NS(=O)(=O)c1ccc(N/N=C/c2cn(-c3ccccc3)nc2-c2cccs2)cc1 | 8.01%
88 | CC(C)N1C(=O)/C(=C/c2nc3ccccc3c(=O)n2-c2ccccc2)c2ccccc21 | 8.46%
89 | Cn1nc(C(=O)N2CCN(c3cccc(Cl)c3)CC2)c2c1-c1ccccc1S(=O)(=O)C2 | -53.4%
